According to patent US20100190716A1, “USE OF A PLATELET FIBRINOGEN RECEPTOR HEXAPEPTIDE ANTAGONIST AND ALPHA-ENDORPHIN AS THERAPEUTIC AGENTS” (priority 2007, published 2010):

Tested on: RAW 264.7 (Mouse leukaemic monocyte macrophage cell line) cells
Test: Phagocytosis assay (Fluorescein-labeled Escherichia coli, flow cytometry)
Type: cell-based
Conditions: 10 micrograms per ml

Substance: PS[Hyp]GDW-OH [peptide 1]
- increase on the phagocytic activity of murine macrophages: 22.9%

Substance: Tyr-Gly-Gly-Phe-Met-Thr-Ser-Glu-Lys-Ser-Gln-Thr-Pro-Leu-Val-Thr-OH (YGGFMTSEKSQTPLVT-OH) [peptide 2, Alpha-Endorphin]
- increase on the phagocytic activity of murine macrophages: 11.4%

Where no end group is shown, it is not given here. [ ]: non-standard residue; d: D form. Hyp = O=C(O)[C@@H]1C[C@@H](O)CN1
